# Source: the supplement of paper PMC8728848
# Some of the results follow.
# B1: Cohesin-hDCIR (Homo sapiens) (protein)
# chain: LDDLDAVRIKVDTVNAKPGDTVRIPVRFSGIPSKGIANCDFVYSYDPNVLEIIEIEPGDIIVDPNPDKSFDTAVYPDRKIIVFLFAEDSGTGAYAITKDGVFATIVAKVKEGAPNGLSVIKFVEVGGFANNDLVEQKTQFFDGGANVGDTTEPATPTTPVTTPTTTDDLDAASQKYSQLLEKKTTKELVHTTLECVKKNMPVEETAWSCCPKNWKSFSSNCYFISTESASWQDSEKDCARMEAHLLVINTQEEQDFIFQNLQEESAYFVGLSDPEGQRHWQWVDQTPYNESSTFWHPREPSDPNERCVVLNFRKSPKRWGWNDVNCLGPQRSVCEMMKIHLHHHHHH
# Assays:
# Test in all cases: glycan array binding signal (z-score within array); higher = stronger binding
# Conditions in all cases: glycan notation: IUPAC condensed, linker removed
# Neu5Ac(a2-3)GalNAc = molecular target: Neu5Ac(a2-3)GalNAc
# In short: (§1)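 Glycan array data were curated from 3228 arrays in the Consortium for Functional Glycomics database and kept only where the protein sequence was available. Glycan names were converted to IUPAC-condensed notation, and columns mapping to the same glycan were averaged. The binding signal is a within-array Z-score, averaged across arrays of the same protein sequence at different concentrations or buffers and across linkers. Negative Z-scores can be read as non-binding.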
# [1] = molecular target: Neu5Ac(a2-3)GalNAc(b1-4)GlcNAc
# In short: as §1
# [2] = molecular target: Neu5Ac(a2-3)[GalNAc(b1-4)]Gal(b1-4)Glc
# In short: as §1
# [3] = molecular target: Neu5Ac(a2-3)[GalNAc(b1-4)]Gal(b1-4)GlcNAc
# In short: as §1
# [4] = molecular target: Neu5Ac(a2-3)[GalNAc(b1-4)]Gal(b1-4)GlcNAc(b1-3)GalNAc
# In short: as §1
# [5] = molecular target: Neu5Ac(a2-3)[Neu5Ac(a2-6)]GalNAc
# In short: as §1
# Neu5Ac(a2-6)Gal = molecular target: Neu5Ac(a2-6)Gal
# In short: as §1
# [6] = molecular target: Neu5Ac(a2-6)Gal(b1-3)GlcNAc(b1-3)[Gal(b1-4)GlcNAc(b1-6)]Gal(b1-4)Glc
# In short: as §1
# Neu5Ac(a2-6)Gal(b1-4)Glc = molecular target: Neu5Ac(a2-6)Gal(b1-4)Glc
# In short: as §1
# [7] = molecular target: Neu5Ac(a2-6)Gal(b1-4)GlcNAc
# In short: as §1
# [8] = molecular target: Neu5Ac(a2-6)Gal(b1-4)GlcNAc(b1-2)Man
# In short: as §1
# [9] = molecular target: Neu5Ac(a2-6)Gal(b1-4)GlcNAc(b1-2)Man(a1-3)Man(b1-4)GlcNAc(b1-4)GlcNAc
# In short: as §1
# [10] = molecular target: Neu5Ac(a2-6)Gal(b1-4)GlcNAc(b1-2)Man(a1-3)[Gal(b1-4)GlcNAc(b1-2)Man(a1-6)]Man(b1-4)GlcNAc(b1-4)GlcNAc
# In short: as §1
# [11] = molecular target: Neu5Ac(a2-6)Gal(b1-4)GlcNAc(b1-2)Man(a1-3)[GlcNAc(b1-2)Man(a1-6)]Man(b1-4)GlcNAc(b1-4)GlcNAc
# In short: as §1
# [12] = molecular target: Neu5Ac(a2-6)Gal(b1-4)GlcNAc(b1-2)Man(a1-3)[GlcNAc(b1-4)][Neu5Ac(a2-6)Gal(b1-4)GlcNAc(b1-2)Man(a1-6)]Man(b1-4)GlcNAc(b1-4)GlcNAc
# In short: as §1
# [13] = molecular target: Neu5Ac(a2-6)Gal(b1-4)GlcNAc(b1-2)Man(a1-3)[Man(a1-6)]Man(b1-4)GlcNAc(b1-4)GlcNAc
# In short: as §1
# [14] = molecular target: Neu5Ac(a2-6)Gal(b1-4)GlcNAc(b1-2)Man(a1-3)[Neu5Ac(a2-3)Gal(b1-4)GlcNAc(b1-2)Man(a1-6)]Man(b1-4)GlcNAc(b1-4)GlcNAc
# In short: as §1
# [15] = molecular target: Neu5Ac(a2-6)Gal(b1-4)GlcNAc(b1-2)Man(a1-3)[Neu5Ac(a2-6)Gal(b1-4)GlcNAc(b1-2)Man(a1-6)]Man(b1-4)GlcNAc(b1-4)GlcNAc
# In short: as §1
# [16] = molecular target: Neu5Ac(a2-6)Gal(b1-4)GlcNAc(b1-2)Man(a1-3)[Neu5Ac(a2-6)Gal(b1-4)GlcNAc(b1-2)Man(a1-6)]Man(b1-4)GlcNAc(b1-4)[Fuc(a1-6)]GlcNAc
# In short: as §1
# [17] = molecular target: Neu5Ac(a2-6)Gal(b1-4)GlcNAc(b1-2)Man(a1-6)Man(b1-4)GlcNAc(b1-4)GlcNAc
# In short: as §1
# [18] = molecular target: Neu5Ac(a2-6)Gal(b1-4)GlcNAc(b1-2)Man(a1-6)[Gal(b1-4)GlcNAc(b1-2)Man(a1-3)]Man(b1-4)GlcNAc(b1-4)GlcNAc
# In short: as §1
# [19] = molecular target: Neu5Ac(a2-6)Gal(b1-4)GlcNAc(b1-2)Man(a1-6)[GlcNAc(b1-2)Man(a1-3)]Man(b1-4)GlcNAc(b1-4)GlcNAc
# In short: as §1
# [20] = molecular target: Neu5Ac(a2-6)Gal(b1-4)GlcNAc(b1-2)Man(a1-6)[Man(a1-3)]Man(b1-4)GlcNAc(b1-4)GlcNAc
# In short: as §1
# [21] = molecular target: Neu5Ac(a2-6)Gal(b1-4)GlcNAc(b1-2)[Neu5Ac(a2-6)Gal(b1-4)GlcNAc(b1-4)]Man(a1-3)[GlcNAc(b1-4)][Neu5Ac(a2-6)Gal(b1-4)GlcNAc(b1-2)[Neu5Ac(a2-6)Gal(b1-4)GlcNAc(b1-6)]Man(a1-6)]Man(b1-4)GlcNAc(b1-4)GlcNAc
# In short: as §1
# [22] = molecular target: Neu5Ac(a2-6)Gal(b1-4)GlcNAc(b1-2)[Neu5Ac(a2-6)Gal(b1-4)GlcNAc(b1-4)]Man(a1-3)[GlcNAc(b1-4)][Neu5Ac(a2-6)Gal(b1-4)GlcNAc(b1-4)Man(a1-6)]Man(b1-4)GlcNAc(b1-4)GlcNAc
# In short: as §1
# [23] = molecular target: Neu5Ac(a2-6)Gal(b1-4)GlcNAc(b1-2)[Neu5Ac(a2-6)Gal(b1-4)GlcNAc(b1-6)]Man(a1-6)[Neu5Ac(a2-6)Gal(b1-4)GlcNAc(b1-2)Man(a1-3)][GlcNAc(b1-4)]Man(b1-4)GlcNAc(b1-4)GlcNAc
# In short: as §1
# [24] = molecular target: Neu5Ac(a2-6)Gal(b1-4)GlcNAc(b1-3)Gal(b1-3)GlcNAc
# In short: as §1
# [25] = molecular target: Neu5Ac(a2-6)Gal(b1-4)GlcNAc(b1-3)Gal(b1-4)GlcNAc
# In short: as §1
# [26] = molecular target: Neu5Ac(a2-6)Gal(b1-4)GlcNAc(b1-3)Gal(b1-4)GlcNAc(b1-2)Man(a1-3)[Neu5Ac(a2-6)Gal(b1-4)GlcNAc(b1-3)Gal(b1-4)GlcNAc(b1-2)Man(a1-6)]GalNAc
# In short: as §1
# [27] = molecular target: Neu5Ac(a2-6)Gal(b1-4)GlcNAc(b1-3)Gal(b1-4)GlcNAc(b1-3)Gal(b1-4)GlcNAc
# In short: as §1
# [28] = molecular target: Neu5Ac(a2-6)Gal(b1-4)GlcNAc(b1-3)Gal(b1-4)GlcNAc(b1-3)Gal(b1-4)GlcNAc(b1-2)Man(a1-3)[Neu5Ac(a2-6)Gal(b1-4)GlcNAc(b1-3)Gal(b1-4)GlcNAc(b1-3)Gal(b1-4)GlcNAc(b1-2)Man(a1-6)]GalNAc
# In short: as §1
# [29] = molecular target: Neu5Ac(a2-6)Gal(b1-4)GlcNAc(b1-3)Gal(b1-4)GlcNAc(b1-3)GalNAc
# In short: as §1
# [30] = molecular target: Neu5Ac(a2-6)Gal(b1-4)GlcNAc(b1-3)Gal(b1-4)GlcNAc(b1-3)[Neu5Ac(a2-6)Gal(b1-4)GlcNAc(b1-3)Gal(b1-4)GlcNAc(b1-6)]GalNAc
# In short: as §1
# [31] = molecular target: Neu5Ac(a2-6)Gal(b1-4)GlcNAc(b1-3)Gal(b1-4)GlcNAc(b1-6)[Gal(b1-3)]GalNAc
# In short: as §1
# [32] = molecular target: Neu5Ac(a2-6)Gal(b1-4)GlcNAc(b1-3)Gal(b1-4)[Fuc(a1-3)]GlcNAc(b1-3)Gal(b1-4)[Fuc(a1-3)]GlcNAc
# In short: as §1
# [33] = molecular target: Neu5Ac(a2-6)Gal(b1-4)GlcNAc(b1-3)GalNAc
# In short: as §1
# [34] = molecular target: Neu5Ac(a2-6)Gal(b1-4)GlcNAc(b1-3)[Neu5Ac(a2-6)Gal(b1-4)GlcNAc(b1-6)]GalNAc
# In short: as §1
binder,measurement,setting,value
B1,glycan array binding signal (z-score),Neu5Ac(a2-3)GalNAc,-0.456
same,glycan array binding signal (z-score),[1],-0.431
same,glycan array binding signal (z-score),[2],-0.157
same,glycan array binding signal (z-score),[3],-0.4
same,glycan array binding signal (z-score),[4],-0.336
same,glycan array binding signal (z-score),[5],0.082
same,glycan array binding signal (z-score),Neu5Ac(a2-6)Gal,-0.59
same,glycan array binding signal (z-score),[6],-0.512
same,glycan array binding signal (z-score),Neu5Ac(a2-6)Gal(b1-4)Glc,-0.39
same,glycan array binding signal (z-score),[7],-0.356
same,glycan array binding signal (z-score),[8],-0.38
same,glycan array binding signal (z-score),[9],-0.482
same,glycan array binding signal (z-score),[10],-0.564
same,glycan array binding signal (z-score),[11],-0.636
same,glycan array binding signal (z-score),[12],-0.661
same,glycan array binding signal (z-score),[13],-0.595
same,glycan array binding signal (z-score),[14],-0.352
same,glycan array binding signal (z-score),[15],-0.136
same,glycan array binding signal (z-score),[16],1.95
same,glycan array binding signal (z-score),[17],-0.613
same,glycan array binding signal (z-score),[18],-0.261
same,glycan array binding signal (z-score),[19],0.473
same,glycan array binding signal (z-score),[20],-0.7
same,glycan array binding signal (z-score),[21],-0.567
same,glycan array binding signal (z-score),[22],-0.51
same,glycan array binding signal (z-score),[23],-0.637
same,glycan array binding signal (z-score),[24],-0.194
same,glycan array binding signal (z-score),[25],-0.112
same,glycan array binding signal (z-score),[26],1.27
same,glycan array binding signal (z-score),[27],-0.542
same,glycan array binding signal (z-score),[28],0.292
same,glycan array binding signal (z-score),[29],0.179
same,glycan array binding signal (z-score),[30],0.096
same,glycan array binding signal (z-score),[31],-0.633
same,glycan array binding signal (z-score),[32],-0.654
same,glycan array binding signal (z-score),[33],0.44
same,glycan array binding signal (z-score),[34],-0.591
